Test results taken from PubChem BioAssay AID1963576 (National Center for Advancing Translational Sciences (NCATS), 2024).
In all, about 46,000 compounds went through this assay and about 60 (0.1%) were called active. Another 3% or so got no clear call; they are omitted. Calls follow the shape of the dose curve; as a rule, active = well fitted inhibition curve with a large enough effect; inconclusive = small, poorly fitted or top-dose-only effect; inactive = no such curve, though single readings can be large or run the other way. Some of the results follow.

test: Primary qHTS assay for Inhibitors of ovarian cancer metastasis using an organotypic tumor microenvironment (TME) model.; also: nearly all actives have a fitted effect of over 65% in size;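 as to activity change, negative = inhibition: plate controls were DMSO wells for no effect and tomatine positive control wells for full effect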; conditions: SKOV3ip1-GFP adhesion/invasion on 3D omental model, fluorescence; series mostly up to 45.8 µM; activity change, negative = inhibition: at the top concentration
In short: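 Primary human omental fibroblast/mesothelial 3D culture pre-formed 48 h. SKOV3ip1-GFP cells added with compounds (0.36-46 umol/L), incubated 2 h RT/16 h 37 C, fixed; GFP cells quantified at 488/509 nm.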

Compound	activity change, negative = inhibition	outcome
CNC(=O)C1CCC(Cn2c(=O)c3sccc3n(CC(=O)Nc3cc(F)ccc3F)c2=O)CC1 (stereo not drawn)	inactive: 0.893%	
CC(=O)Nc1cccc(NC(=O)CSc2cn(CC(=O)N3CCCCCC3)c3ccccc23)c1	inactive: -6.51%	
CCN(CC)S(=O)(=O)c1ccc(C(=O)NCCSc2c(-c3ccc(OC)cc3)[nH]c3ccccc23)cc1	inactive: -14.7%	
CC(=O)c1c(C)oc2ccc(N(C(=O)c3ccncc3)S(=O)(=O)c3ccc(C)cc3C)cc12		inactive
COc1ccccc1NC(=O)C1=C(C)Nc2nc(SCc3ccccc3Cl)nn2C1c1ccncc1 (stereo not drawn)	inactive: 1.68%	
O=C(CN1C(=O)C2(SCC(=O)N2c2ccc(F)cc2)c2ccccc21)NCCc1ccccc1 (stereo not drawn)	inactive: -9.92%	
O=C(O)c1cccnc1	inactive: -8.77%	
COc1ccc(NC(=O)CCSc2nc(-c3ccco3)cc(C(F)(F)F)n2)cc1OC	inactive: -2.77%	
CCc1ccc(OCCSc2nc(-c3cccc(C)c3)nc3cc(=O)[nH]n23)cc1	inactive: 5.73%	
COc1ccc(-c2ccc(=O)n(CC(=O)NCCc3ccccc3)n2)cc1		inactive
CCOc1ccc(C(=O)c2cn(CC(=O)Nc3cc(OC)ccc3OC)c3cc(OC)c(OC)cc3c2=O)cc1	inactive: 2.77%	
CCOc1cc(CNCCSc2nnnn2-c2ccccc2)ccc1OC	inactive: 1.09%	
CCOC(=O)C1CCN(C(c2ccc(F)cc2)c2sc3nc(-c4ccco4)nn3c2O)CC1 (stereo not drawn)	inactive: -1.26%	
Cc1cc(C)c(NC(=O)C(C)n2nnc3sc(-c4ccccc4)cc3c2=O)c(C)c1 (stereo not drawn)	inactive: 2.12%	
Cc1cc(C)cc(Nc2cc(C(=O)NCc3ccccc3)c3ccccc3n2)c1	inactive: 34.3%	
Cc1cc(C)cc(Nc2nc3c(S(=O)(=O)c4cccc(Cl)c4)nnn3c3ccsc23)c1	inactive: -12.2%	
CCCCc1oc2ccccc2c1C(=O)c1cc(I)c(OCCN(CC)CC)c(I)c1	inactive: -10.6%	
CCOC(=O)c1cc(-c2ccc(F)cc2)n(CCC(=O)NC2CCCCC2)c1C	inactive: -22.1%	
Cc1cccc(NC(=O)Cn2c(=O)n(CCC(=O)N3CCc4ccccc4C3)c(=O)c3ccccc32)c1		inactive
CSc1ccc(CCNC(=O)c2cc3c(-c4ccccc4F)nn(C)c3s2)cc1	inactive: 42%	
CCOC(=O)c1cccc(NC(=O)c2cc3cc4ccc(C)cc4nc3s2)c1		inactive
CCOc1ccc(NC(=O)NCCN2CCN(c3ccccc3F)CC2)cc1		inactive
O=S(=O)(NCc1ccc(Cl)cc1)c1ccc(N2CCCCS2(=O)=O)cc1	inactive: -11.4%	
CCOC(=O)c1cc2c(=O)n3ccccc3nc2n(C)c1=NC(=O)c1cc2ccccc2o1	inactive: 4.4%	

Compound	activity change, negative = inhibition	outcome
CC(=O)Nc1ccc(C(=O)CSc2nnc3ccc4ccccc4n23)cc1	inactive: -9.61%	
Cc1cc(=O)n2nc(N3CCC(C(=O)Nc4ccc(Br)cc4F)CC3)sc2n1	inactive: -5.74%	
Cc1ccc2c(c1)c1c(c(=O)n(-c3ccccc3C)c(=O)n1CC(=O)NCC1CCCO1)n2C (stereo not drawn)	inactive: 10.7%	
COc1cccc(NC(=O)c2ccc(-c3nc(COc4ccc(C)cc4)c(C)o3)cc2)c1	inactive: -15.2%	
Nc1c(C(=O)Nc2ccc(Br)cc2)sc2nc(-c3ccncc3)ccc12		inactive
O=C(CNC(=O)c1ccc(Cl)cc1)OCc1cc(=O)n2nc(C3CCCCC3)sc2n1		inactive
OC[C@H]1OC(O)C[C@@H](O)[C@H]1O (stereo partly drawn)	inactive: 2.84%	
Cc1ccc(C)c(NC(=O)CCCN2C(=O)C(c3ccccc3)Oc3cccnc32)c1 (stereo not drawn)	inactive: 25.4%	
COc1cc2c(=O)n(CCC(=O)NCC3CCCO3)c(=O)n(CC(=O)Nc3ccc(F)cc3)c2cc1OC (stereo not drawn)	inactive: 9.17%	
COc1ccc(S(=O)(=O)N(CC(=O)Nc2cccnc2)c2ccc(C)cc2)cc1OC	inactive: 3.11%	
CCc1ccc(-n2c(CCC(=O)O)ccc2-c2ccc(F)cc2)cc1	inactive: 6.6%	
CCOc1ccccc1NC(=O)COc1ccc(S(=O)(=O)NC2CCCCC2)cc1	inactive: 0.614%	
CCn1c(CN2CCCCC2)nc2cc(NC(=O)c3ccc([N+](=O)[O-])cc3)ccc21	inactive: -5.55%	
O=C(Nc1ccc(F)c(F)c1)C1CCCN1S(=O)(=O)c1cccc2nsnc12 (stereo not drawn)	inactive: 8.02%	
CCOc1ccccc1CNC(=O)c1cc(-c2ccc(C)c(C)c2)nc2ccccc12	inactive: -0.159%	
CCc1ccc(CNC(=O)CCn2c(=O)c3cccn3c3ccc(F)cc32)cc1	inactive: -10.1%	
Cc1ccc(-n2nnc(-c3nsc(NC(=O)c4ccc(C)c(C)c4)n3)c2C)cc1	inactive: -10.3%	
CCc1ccc(C2NC(=O)c3[nH]nc(-c4cccc(OC)c4)c32)cc1 (stereo not drawn)	inactive: -3.08%	
CC(C)Oc1ccc(CNC(=O)C2CCN(c3nc4ccccc4n(C)c3=O)CC2)cc1	inactive: -2.46%	
Cc1oc2ncn(C)c(=O)c2c1C(=O)NCCCN(Cc1ccccc1)C(C)C	inactive: 9.55%	
Cc1ccc(NC(=O)Cn2nnc(C(=O)NCCc3ccccc3)c2N)cc1C	inactive: -9.5%	
Cc1ccc(C(=O)Nc2nc(-c3ccccc3)ns2)cc1	inactive: -7.13%	
CCn1c(=O)c2sccc2n2c(CCC(=O)Nc3ccc(OC)c(Cl)c3)nnc12		inactive
Cc1ccsc1CN(C(=O)c1oc2ccccc2c1C)C1CCS(=O)(=O)C1 (stereo not drawn)	inactive: -6.96%	
